Measured values as given in PubChem BioAssay (NCATS).
“And” between values parts separate entries of the source, which are not always exact repeats. Equal entries are not always repeated. Inconclusive means that the source gave no clear call. Such entries were picked first, then a sample of the others. Where the call is inconclusive, the potency comes from a doubtful curve fit. The source made the active and inactive calls. Calls come from the whole dose curve; as a rule, active = well fitted curve in the direction sought with a large enough effect; inconclusive = small, poorly fitted or top-dose-only effect, or another doubt; inactive = no such curve, though single readings can be large; an effect the other way counts as inactive or inconclusive.

How the values were obtained:
[1] = Viability qHTS for spleen associated tyrosine kinase inhibitor (SYKi) naive MV4-11 cells (AID 1963823); conditions: MV4-11 AML viability, CellTiter-Glo luminescence, 72 h; viability (% of control): at 45 µM (top of the series); note: nearly all actives have a fitted effect of over 40% in size
Method in brief: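 qHTS, SYK inhibitor-naive MV4-11; 500 cells/well; 72 hr compound exposure, 37 C; CellTiter-Glo added, 10 min RT; luminescence read.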

[2] = Cellular viability qHTS for adrenocortical cancer (ACC) cell line NCI-H295R (AID 1963990); conditions: CellTiter-Glo ATP luminescence, 48 h; activity change, negative = viability loss: at 46.1 µM (top of the series); note: nearly all actives have a fitted effect of over 60% in size;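 for activity change, negative = viability loss: 0% = DMSO only wells and -100% = full killing with cytotoxic reference compound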
Method in brief: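 IC50 and maximal efficacy derive from four-parameter logistic modelling of titration curves, with reads scaled between DMSO-only wells (0%) and doxorubicin hydrochloride (100% inhibition). Compounds spanned up to 46 uM over 48 h.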

[3] = Cellular viability qHTS for adrenocortical cancer (ACC) cell line SW-13 (AID 1963989); conditions: SW-13 ACC cells viability, CellTiter-Glo, 48 h; activity (max response): stronger effect = lower value; note: nearly all actives have a fitted effect of over 65% in size
Method in brief: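 Luminescent ATP read-out (CellTiter-Glo, 20 min at room temperature) measured metabolically competent SW-13 cells after 48 h compound treatment. Final concentrations spanned up to 46 uM; bortezomib served as positive control.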
Potency is the fitted concentration of half-maximal effect; tags give direction and shape of the fitted curve.

Structure (SMILES) | Potency [1] | Potency [2] | Potency [3] | viability (% of control) [1]
Cc1c(Nc2ncccc2C(=O)O)cccc1C(F)(F)F | inactive | inconclusive: 7.31 µM [cytotoxic, partial curve] |  | 
CCCCNc1c(C(=O)OCC)c(C)nc2c1cnn2CC | inconclusive: 5.31 µM [cytotoxic, partial curve, poor fit] | inconclusive: 14.6 µM [cytotoxic, partial curve, poor fit] |  | 
CC(C)C[C@@H]1NC(=O)[C@@H](C(C)C)NC(=O)[C@@H]2CCCN2C(=O)[C@@H](CC(=O)O)NC(=O)[C@@H](Cc2c[nH]c3ccccc23)NC1=O | inconclusive: 10.5 µM [cytotoxic, full curve, poor fit] | inconclusive: 8.91 µM [cytotoxic, single point] |  | 
Cc1c(-c2ccccc2)oc2c(C(=O)OCCN3CCCCC3)cccc2c1=O | inactive | inactive |  | 
C=Cc1c(C)c2cc3[nH]c(cc4nc(cc5nc(cc1[nH]2)C(C)=C5CCC(=O)O)C(CCC(=O)O)=C4C)c(C)c3C=C | inactive | inactive |  | 
CC[C@]1(O)C[C@@H]2CN(CCc3c([nH]c4ccccc34)[C@@](C(=O)OC)(c3cc4c(cc3OC)N(C)[C@H]3[C@@](O)(C(=O)OC)[C@H](OC(C)=O)[C@]5(CC)C=CCN6CC[C@]43[C@@H]65)C2)C1 | inconclusive: 18.8 µM [cytotoxic, single point] and active: 211 nM and active: 36.6 nM | active: 116 nM and active: 291 nM |  | 
C[C@@H](Nc1ncnc2[nH]c(-c3ccc(O)cc3)cc12)c1ccccc1 | active: 4.11 µM and active: 7.42 µM | active: 11.2 µM |  | 
CONC(=O)Nc1ccc(-c2sc3c(c2CN(C)Cc2ccccc2)c(=O)n(-c2ccccc2)c(=O)n3Cc2c(F)cccc2F)cc1 | active: 16.6 µM | inactive |  | 
Cc1c(-c2c(-c3ccc(F)o3)sc3ncnc(O[C@@H](Cc4ccccc4OCc4ccnn4CC(F)(F)F)C(=O)O)c23)ccc(OCCN2CCN(C)CC2)c1Cl | inconclusive: 0.0263 µM [cytotoxic, full curve] | active: 1.58 µM | active: 0.199 µM | 
Cc1nc(NC(=O)N2CCC[C@H]2C(N)=O)sc1-c1csc(C(C)(C)C)n1 | active: 7.42 µM | inconclusive: 14.1 µM [cytotoxic, partial curve] |  | 
NCCCC[C@H](NC(=O)[C@@H](NC(=O)[C@H](Cc1c[nH]c2ccccc12)NC(=O)[C@H](CCCCN)NC(=O)[C@H](CCCCN)NC(=O)[C@H](Cc1c[nH]c2ccccc12)NC(=O)[C@H](Cc1c[nH]c2ccccc12)NC(=O)[C@H](CCCCN)NC(=O)[C@@H](N)CCCCN)C(c1ccccc1)c1ccccc1)C(N)=O | active: 8.33 µM | inconclusive: 5.01 µM [cytotoxic, single point] |  | 
Cc1nc2sccn2c(=O)c1CCN1CCC(=C(c2ccc(F)cc2)c2ccc(F)cc2)CC1 | inconclusive: 11.9 µM [cytotoxic, partial curve] | inconclusive: 20.6 µM [cytotoxic, single point] |  | 
O=C1OC(c2ccc(O)cc2)(c2ccc(O)cc2)c2ccccc21 | inconclusive: 18.8 µM [cytotoxic, single point] | inconclusive: 29.1 µM [cytotoxic, single point] | inconclusive: 29.1 µM [cytotoxic, single point] | 
COc1cc(C(=O)O)ccc1NC(=O)[C@@H]1N[C@@H](CC(C)(C)C)[C@](C#N)(c2ccc(Cl)cc2F)[C@H]1c1cccc(Cl)c1F | active: 6.61 µM | inactive |  | 
COCC(=O)NC/C=C/c1ccc2ncnc(Nc3ccc(Oc4ccc(C)nc4)c(C)c3)c2c1 | inconclusive: 10.3 µM [cytotoxic, partial curve] | inconclusive: 35.5 µM [cytotoxic, single point] | inconclusive: 12.6 µM [cytotoxic, partial curve] | 
C=CCNC1=C2CC(C)CC(OC)C(O)C(C)/C=C(\C)C(OC(N)=O)C(OC)/C=C/C=C(\C)C(=O)NC(=CC1=O)C2=O (stereo unspecified) | active: 0.0934 µM | active: 10 µM |  | 
COc1cc2c(cc1OC)C(C(C(=O)N(CCc1ccc(OC)c(OC)c1OC)CCc1ccc(OC)c(OC)c1OC)c1ccccc1)=NCC2 (stereo unspecified) | active: 15 µM | inconclusive: 29.1 µM [cytotoxic, single point] |  | 
CC(=O)c1ccc2c(c1)N(CCCN(C)C)c1ccccc1S2 | inconclusive: 18.8 µM [cytotoxic, single point] | inconclusive: 23.1 µM [cytotoxic, single point] | inconclusive: 20.6 µM [cytotoxic, single point] | 
C[n+]1cc2c3c(ccc2c2ccc4cc5c(cc4c21)OCO5)OCO3 | inconclusive: 1.03 µM [cytotoxic, full curve] | active: 1.42 µM | active: 2.24 µM | 
CC(=O)c1ccc2c(c1)N(CCCN1CCC(CCO)CC1)c1ccccc1S2 | active: 26.6 µM | inconclusive: 29.1 µM [cytotoxic, single point] |  | 
Cc1c(F)c(N2CCNC(C)C2)cc2c1c(=O)c(C(=O)O)cn2C1CC1 (stereo unspecified) | inactive | inactive |  | 

Structure (SMILES) | Potency [1] | Potency [2] | Potency [3] | viability (% of control) [1]
CC#CC(=O)N1CC[C@@H](n2c(=O)n(-c3ccc(Oc4ccccc4)cc3)c3c(N)ncnc32)C1 | active: 7.42 µM | inconclusive: 22.4 µM [cytotoxic, single point] | inconclusive: 25.1 µM [cytotoxic, partial curve] | 
Cc1c(NC(=O)OCC2COCCN2)cn2ncnc(Nc3ccc4c(cnn4Cc4cccc(F)c4)c3)c12 (stereo unspecified) | active: 4.61 µM and active: 16.6 µM | active: 31.6 µM |  | 
N[C@@H](Cc1ccc(O)cc1)C(=O)O |  | inconclusive: 2.66 µM [rising, partial curve, poor fit] |  | inactive: 88.5% [at 9.25 µM]
CCCN(CCC)C(=O)C1=Cc2ccc(-c3ccc(C(=O)N4CCCC4)cc3)cc2N=C(N)C1 | active: 8.33 µM | inconclusive: 14.1 µM [cytotoxic, partial curve, poor fit] | inconclusive: 35.5 µM [cytotoxic, partial curve, poor fit] | 
O[C@@H](c1cc(C(F)(F)F)nc2c(C(F)(F)F)cccc12)[C@H]1CCCCN1 | inconclusive: 10.6 µM [cytotoxic, partial curve] | active: 5.17 µM |  | 
C[C@@H](Nc1cc(F)cc(F)c1)c1cc(C(=O)N(C)C)cc2c(=O)cc(N3CCOCC3)oc12 | inconclusive: 291 nM [cytotoxic, partial curve, poor fit] and inconclusive: 74.2 nM [cytotoxic, full curve] | inconclusive: 25.1 µM [cytotoxic, partial curve, poor fit] |  | 
Cc1c(-c2cnccn2)ssc1=S | active: 4.17 µM | inconclusive: 25.1 µM [cytotoxic, partial curve, poor fit] |  | 
CCC[C@@H]1C[C@@H](C(=O)N[C@@H]([C@H]2O[C@H](SC)[C@H](O)[C@@H](O)[C@H]2O)[C@H](C)Cl)N(C)C1 | inactive | inactive |  | 
O=C(c1ccc(F)c(F)c1Nc1ccc(I)cc1F)N1CC(O)([C@@H]2CCCCN2)C1 | active: 326 nM and active: 235 nM | active: 5.62 µM |  | 
Cc1cc(=O)n(-c2ccccc2)n1C | inconclusive: 1.06 µM [cytotoxic, full curve, poor fit] | inactive |  | 
CCCCCCCC/C=C\CCCCCCCC(=O)NCc1ccc(O)c(OC)c1 | inactive | inconclusive: 3.66 µM [cytotoxic, partial curve] |  | 
CC(=O)OCC1=C(C(=O)O)N2C(=O)[C@@H](NC(=O)CSc3ccncc3)[C@H]2SC1 | inconclusive: 5.96 µM [rising, single point] | inconclusive: 29.1 µM [cytotoxic, single point] |  | 
O=C(/C=C/C#Cc1cccc(NS(=O)(=O)c2ccccc2)c1)NO | active: 0.407 µM | active: 3.19 µM |  | 
Clc1ccccc1-c1nc(-c2ccncc2)no1 | inconclusive: 15 µM [cytotoxic, partial curve] | inactive |  | 
CCCCNC(=O)NS(=O)(=O)c1ccc(N)cc1 | inconclusive: 4.73 µM [cytotoxic, partial curve, poor fit] | inactive |  | 
NC(=O)C1(N2CCCCC2)CCN(CCCN2c3ccccc3CCc3ccc(Cl)cc32)CC1 | active: 8.41 µM | active: 2.91 µM |  | 
CC(=O)OC[C@H]1O[C@@H](n2ncc(=O)[nH]c2=O)[C@H](OC(C)=O)[C@@H]1OC(C)=O | inactive | inactive |  | 
Nc1nc(F)nc2c1ncn2C1OC(COP(=O)(O)O)C(O)C1O (stereo unspecified) | active: 10.5 µM | inconclusive: 28.2 µM [cytotoxic, single point] |  | 
CCCCCCCCCCCCOS(=O)(=O)O | inactive | inconclusive: 14.6 µM [cytotoxic, single point] |  | 
C#C[C@]1(O)CC[C@H]2[C@@H]3CCC4=Cc5oncc5C[C@]4(C)[C@H]3CC[C@@]21C | active: 15 µM | inconclusive: 20.6 µM [cytotoxic, single point] |  | 
COc1nnc2ccc(N3CCC(c4ccc(OCCN5CCN(C)C(=O)[C@H]5C)cc4)CC3)nn12 | inconclusive: 0.0417 µM [cytotoxic, full curve] | inconclusive: 0.158 µM [cytotoxic, full curve, poor fit] |  | 
